The results in this text go back to paper PMC4336329 (PLoS ONE, 2015).

Molecules are shown by their SMILES. The campaign covered roughly 310,000 compounds. About 14,000 (4.5%) showed an effect of 50% or more. Effects have a minus sign here. Some of the results follow.
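Note: peak tail current of the secondary pulse compared with the same well before compound.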

For the experiment, the target named is human ether-à-go-go-related gene (hERG) potassium channel (human, UniProt Q12809). Nature of the experiment: primary screen, population patch clamp on CHO cells stably expressing hERG.
human ether-à-go-go-related gene (hERG) potassium channel, sequence (Q12809 whole entry, looked up): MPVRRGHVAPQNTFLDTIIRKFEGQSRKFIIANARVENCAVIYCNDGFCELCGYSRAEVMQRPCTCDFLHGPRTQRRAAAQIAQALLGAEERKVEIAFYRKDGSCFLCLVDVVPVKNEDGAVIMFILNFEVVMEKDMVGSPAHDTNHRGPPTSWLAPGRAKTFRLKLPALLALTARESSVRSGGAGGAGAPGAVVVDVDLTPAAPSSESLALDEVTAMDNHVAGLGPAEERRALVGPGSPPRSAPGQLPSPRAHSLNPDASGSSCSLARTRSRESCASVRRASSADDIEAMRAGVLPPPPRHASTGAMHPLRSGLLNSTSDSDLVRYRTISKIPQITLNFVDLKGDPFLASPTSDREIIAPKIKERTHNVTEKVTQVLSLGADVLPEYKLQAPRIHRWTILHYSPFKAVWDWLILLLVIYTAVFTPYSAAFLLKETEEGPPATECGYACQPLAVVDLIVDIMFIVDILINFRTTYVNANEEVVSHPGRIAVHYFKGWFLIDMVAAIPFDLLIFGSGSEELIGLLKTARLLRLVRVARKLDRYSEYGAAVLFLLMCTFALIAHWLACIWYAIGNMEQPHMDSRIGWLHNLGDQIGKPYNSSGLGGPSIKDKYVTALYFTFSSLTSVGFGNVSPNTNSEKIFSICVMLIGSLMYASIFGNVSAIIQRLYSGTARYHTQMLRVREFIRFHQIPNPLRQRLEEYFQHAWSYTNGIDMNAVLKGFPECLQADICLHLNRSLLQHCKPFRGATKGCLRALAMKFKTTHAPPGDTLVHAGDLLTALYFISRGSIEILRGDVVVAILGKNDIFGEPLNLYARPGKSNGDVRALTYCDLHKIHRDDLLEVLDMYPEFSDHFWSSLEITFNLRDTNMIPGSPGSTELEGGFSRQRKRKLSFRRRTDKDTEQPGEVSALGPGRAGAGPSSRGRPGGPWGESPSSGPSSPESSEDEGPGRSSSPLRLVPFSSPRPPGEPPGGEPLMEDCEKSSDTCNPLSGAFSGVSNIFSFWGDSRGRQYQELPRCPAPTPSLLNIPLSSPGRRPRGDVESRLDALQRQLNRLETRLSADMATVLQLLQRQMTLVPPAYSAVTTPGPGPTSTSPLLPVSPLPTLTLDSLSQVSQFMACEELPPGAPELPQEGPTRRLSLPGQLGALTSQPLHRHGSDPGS
For `Cc1ccc(C(=O)NCC(=O)NC23CC4CC(CC(C4)C2)C3)cc1`, the “hERG current change (%, negative = inhibition) at 10uM” value was 14.3%.
On to `COCCNC(=O)/C(C#N)=C/c1ccc(O)cc1`, for which the “hERG current change (%, negative = inhibition) at 10uM” value is given as 10.6%.
Next, `CN1CCN(C(=O)c2cc([N+](=O)[O-])cc([N+](=O)[O-])c2)CC1`: 16.7%.
Regarding `COc1ccc(-n2nc(C(=O)NCC(=O)NCc3ccco3)c3ccccc3c2=O)cc1`, the “hERG current change (%, negative = inhibition) at 10uM” value is recorded as -9.11%.
For the compound `Cc1cccc(/C=N/NC(=O)Cc2ccc(Cl)cc2)c1O`, the “hERG current change (%, negative = inhibition) at 10uM” value is given as 18.6%.
With `Cc1c(/C(O)=C2\C(=O)C(=O)N(CCN(C)C)C2c2ccco2)cnn1-c1ccccc1` (stereo not drawn) the figure was -0.172%; with `Cc1nc(N(C)Cc2ccccc2)c2c(C)c(C)sc2n1`, -14.8%; with `COc1ccc(-n2nc(C(=O)NCC(=O)NCCCN3CCC(C)CC3)c3ccccc3c2=O)cc1Cl`, -74.2%.
With `COc1ccc(NC(C)=O)cc1S(=O)(=O)N1CCN(C(=O)c2ccccc2F)CC1` the figure was -7.16%; with `O=C(/C=C/c1ccccc1)N1CCN(c2ccccn2)CC1`, -42.8%; with `COc1ccc(C(=O)COC(=O)c2ccc(-n3cnnn3)cc2)c(OC)c1`, 5.26%.
Consider `CCOC(=O)C(C)/C(C)=N/NC(N)=S` (stereo not drawn), for which the “hERG current change (%, negative = inhibition) at 10uM” value stood at 14.4%.
For the compound `Cc1ccc(S(=O)(=O)Nc2cc3c4c(c2)CC(=O)N4CCC3)cc1`, the “hERG current change (%, negative = inhibition) at 10uM” value is recorded as -20%.
`O=C(c1ccccc1)c1ccc2c(c1)OCCCO2`: the “hERG current change (%, negative = inhibition) at 10uM” value was -5.56%.
In the case of `Nc1nc(Cl)cc(NCCc2ccc(O)cc2)n1`, the “hERG current change (%, negative = inhibition) at 10uM” value turned out to be 9.4%.
Next, `CC(C)COC(=O)C(C#N)c1nc2ccccc2nc1N1CCN(Cc2ccc3c(c2)OCO3)CC1` (stereo not drawn): -6.51%; `O=C(NNC1=C(C(=O)C(F)(F)F)CCC1)c1ccc(Cl)cc1`: 12.7%.
With `COC(=O)c1cc(S(=O)(=O)Nc2cccc(S(N)(=O)=O)c2)oc1C` the figure was 17.4%; with `Cc1ccc(NC(=O)NN2CCOCC2)cc1`, 15%; with `NC(=S)Cc1ccc(Cl)cc1Cl`, 18.8%.
With `COc1ccc(S(=O)(=O)N(C)CC(=O)NCCCn2ccnc2)cc1Cl` the figure was 0.299%; with `COC(=O)c1cc2nc(-c3ccccc3)cc(C)n2n1`, -4.83%.
Turning to `CCOC(=O)c1c(CN2CCC(C)CC2)n(C)c2cc(Br)c(OC)cc12`, the “hERG current change (%, negative = inhibition) at 10uM” value was found to be 10.5%.
As to `CCOC(=O)C(NC(=O)c1ccccc1F)(Nc1cc(C)on1)C(F)(F)F` (stereo not drawn), the “hERG current change (%, negative = inhibition) at 10uM” value was determined as 12.8%.
With `CC1(OC(=O)CCc2ccccc2)C(=O)C=C2C=C(C3CC3)OC=C2C1=O` (stereo not drawn), the “hERG current change (%, negative = inhibition) at 10uM” value stood at 1.57%.
As to `Cc1cc(Cl)ccc1OCCCC(N)=O`, the “hERG current change (%, negative = inhibition) at 10uM” value is 2.71%.
As to `O=C(Nc1cccc(S(=O)(=O)N2CCCC2)c1)c1ccc2c(c1)OCO2`, the “hERG current change (%, negative = inhibition) at 10uM” value is -0.147%.
For `Cc1nnc(SCc2ccc(Cl)cc2Cl)[nH]c1=O`, the “hERG current change (%, negative = inhibition) at 10uM” value stood at 0.462%.
Regarding `O=C(Nc1ccc([N+](=O)[O-])cc1Cl)c1cc(Cl)ccc1O`, the “hERG current change (%, negative = inhibition) at 10uM” value amounted to 7.32%.
Consider `COc1ccc(S(=O)(=O)Nc2cc(C)c(O)c(S(=O)(=O)c3ccccc3)c2)cc1`, for which the “hERG current change (%, negative = inhibition) at 10uM” value is given as -16.3%.
On to `Cc1ccc(O)c(-c2cc(C(=O)Nc3c(C)n(C)n(-c4ccccc4)c3=O)[nH]n2)c1`, for which the “hERG current change (%, negative = inhibition) at 10uM” value came to 8.4%.
With `CC(=O)NCC(=O)N1CCCC(C(=O)c2ccc(Oc3ccccc3)cc2)C1` (stereo not drawn) the figure was -23.2%.
For the compound `CCOC(=O)c1c(NC(=O)CSc2nnc(-c3c[nH]c4ccccc34)n2C)sc2c1CCCC2`, the “hERG current change (%, negative = inhibition) at 10uM” value came out at 3.93%.
On to `CC(C)CCn1nnnc1CN1CCN(c2ccccc2)CC1`, for which the “hERG current change (%, negative = inhibition) at 10uM” value is -1.04%.
With `O=C(CSc1nc(-c2ccccc2)nc2c1Cc1ccccc1O2)Nc1ccccc1` the figure was -0.581%; with `O=S(=O)(c1ccccc1)N1CCC(O)(CSc2ccc(Cl)cc2)CC1`, 8.28%; with `CCCCC(=O)NC(=S)NNC(=O)CC#N`, 8.08%.
With `CCNc1nc(NCC)nc(C(=O)Nc2ccccc2)n1` the figure was -31.1%; with `CCOC1CCc2c(C)nc(N)nc2S1` (stereo not drawn), 17.5%; with `CC1CCN(C(C)C(=O)Nc2ccccc2-c2ccccc2)CC1.O=C(O)C(=O)O` (stereo not drawn), -15.4%.
With `O=[N+]([O-])c1cc(/C=N/N2CCN(C3c4ccccc4-c4ccccc43)CC2)ccc1Cl` the figure was 0.86%; with `CN(C)c1ccc(C(CNS(=O)(=O)c2ccc3ccccc3c2)c2c[nH]c3ccccc23)cc1` (stereo not drawn), 18%; with `CC(=O)C1=C(C)NC(SCC(N)=O)=C(C#N)C1C` (stereo not drawn), 8.65%.
As for `CCCc1cc(=O)oc2c(C)c(OCC(=O)N3CCC(C(=O)O)CC3)ccc12`, the “hERG current change (%, negative = inhibition) at 10uM” value amounted to 14.5%.
Next, `CC(=O)Nc1ccccc1NC(=O)C/C(C)=N/NC(=O)C(=O)Nc1cccc(Cl)c1C`: 0.355%.
With `COc1c(/C=N/NC(=O)c2ccccc2O)c(CCN(C)C(C)=O)cc2c1OCO2` the figure was -3.64%; with `C=C1SC(=Nc2c(C)cc(C)cc2C)N(C(=O)c2sc3ccccc3c2Cl)C12CCCCC2`, 33.1%.
With `COc1ccc(NC(=O)C(=O)NCCCn2ccnc2)cc1`, the “hERG current change (%, negative = inhibition) at 10uM” value came to 0.989%.
With `CCOC(=O)c1csc(-c2ccc3c(c2)CCO3)n1` the figure was -3.16%; with `Cc1cccc(-n2cnc3cc(C(=O)N4CCCCC4)ccc32)c1`, -21.3%; with `CC(OC(=O)C1=NN(c2ccccc2)C(=O)CC1)C(=O)NC1CCCCC1C` (stereo not drawn), 1.73%.
For the compound `N#Cc1cnn2ccn(C3OC(CO)C(O)C3O)c12` (stereo not drawn), the “hERG current change (%, negative = inhibition) at 10uM” value was determined as 2.13%.
With `CC(C)COC(=O)N1CC(O)CC1C(=O)O` (stereo not drawn) the figure was 25.3%; with `COc1ccc(CCC(=O)NNC(=S)NCc2ccc(F)cc2)cc1`, 15.2%.
For the compound `CCOC(=O)C1(CCOC)CCN(CC(C)Cc2ccc3c(c2)OCO3)CC1` (stereo not drawn), the “hERG current change (%, negative = inhibition) at 10uM” value was -43.1%.
Regarding `CCOc1ccc(CN2CCNC(=O)C2CC(=O)N(C)CC2CCOCC2)cc1` (stereo not drawn), the “hERG current change (%, negative = inhibition) at 10uM” value was 9.99%.
With `Cc1ccc(C(=O)NC(=S)NNC(=O)CCN2CCOCC2)cc1` the figure was 17.1%.
